Data from PubChem BioAssay (NCI).
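In this assay, cells in 96-well plates receive the compound at five concentrations for 48 hours. Endpoints are linearly interpolated between the surrounding concentrations. Abbreviation: GI50, concentration required for 50% inhibition of growth. TGI: concentration producing complete growth inhibition.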

Test system: NCI-H322M lung
Test: NCI-60 cell line screen, 48 h

O=C(NO)c1ccc(Cn2ccc3c(Nc4ccccc4)ncnc32)cc1
GI50: 5.45 µM
TGI: > 29 µM
